Assay results as given in the supplement of paper PMC10441789.
This is one part of the list. Antibody binding of pooled human sera (four to six donors per pool; dilution not stated) to peptides of the Trypanosoma cruzi antigen TSSA on microarrays. Quantile-normalised fluorescence in arbitrary units, mean of duplicate arrays; higher = more binding. No active / inactive call. The uninfected pools are read here as the healthy donors of the same country. The strongest signals lie near the top of the scale (about 60,000).

Test system: pooled sera of uninfected people, USA
Experiment: antibody binding signal (normalised fluorescence) (arbitrary fluorescence units); higher = stronger serum antibody binding to peptide
Experimental: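 Microarray of 15-residue peptides over residues 30-55 of Trypanosoma cruzi TSSAII, each with 1 to 10 substitutions at naturally variable positions, probed with one serum pool per country.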

| Sequence | antibody binding signal |
| --- | --- |
| STPPSGKEKKAAAGG | 146 |
| KAAAGGTPSQSGASS | 232 |
| TDNKTAAGEAPSPPG | 139 |
| KKAATGEAPSQSGAS | 292 |
| TDNKTATGETPSQPG | 237 |
| KDKKPATGEAPSQPG | 131 |
| TDKKPATGGAPSPSG | 198 |
| KDNKTATGGTPSPSG | 163 |
| KTAAGGTPSPPGASS | 179 |
| KDNKTATGGAPSQSG | 135 |
| SGKENKAATGGAPSP | 200 |
| ENKPATGETPSQPGA | 289 |
| KKAATGEAPSPPGAS | 414 |
| GTENKAAAGETPSPP | 474 |
| TPPSGTENKPATGGT | 1130 |
| TEKKPAAGGAPSQSG | 1270 |
| GTDNKTAAGGTPSPP | 170 |
| GKENKAATGGTPSPS | 125 |
| KPATGETPSQPGASS | 238 |
| GKDNKPAAGGTPSQP | 93.2 |

| Sequence | antibody binding signal |
| --- | --- |
| GTENKAATGETPSPP | 955 |
| KKTAAGEAPSQSGAS | 298 |
| SGTENKAATGEAPSP | 83.4 |
| GKENKAATGETPSQS | 241 |
| KEKKAATGETPSQPG | 149 |
| GKDKKPATGGAPSPP | 107 |
| SSTPPSGTENKTAAG | 746 |
| TDKKTATGGAPSQPG | 172 |
| TPPSGTDNKPAAGGA | 578 |
| TENKAAAGETPSPPG | 1050 |
| ISTPPSGKEKKAAAG | 229 |
| KKTAAGGTPSQSGAS | 212 |
| GKENKAAAGETPSPP | 375 |
| GKDNKAAAGGAPSPP | 122 |
| GKDNKPATGETPSQS | 136 |
| SGKDKKTAAGGTPSQ | 110 |
| TPPSGKDNKTATGGA | 245 |
| KKPATGETPSPPGAS | 788 |
| KEKKAATGETPSPSG | 999 |
| GKDNKAAAGGTPSPP | 72.4 |
